Over roughly 33,000 sequences, “E-score (-0.5 to 0.5)” has its median near -0.016; the highest 2% begin near 0.31. This is one part of the list.

The target in the test is Cst6 (UniProt P40535). Briefly: PBM E-score (8-mer binding enrichment) (E-score (-0.5 to 0.5)); higher = stronger / more preferred TF binding; most listed sequences are background and not binding sites. The settings on record: protein concentration: 200 nM; construct: GST-DNA-binding domain. In short, it runs like this: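 PURExpress in vitro transcription/translation supplied GST-tagged yeast transcription factors, either full-length or DNA-binding domain. Applied at about 100-200 nM to universal all-10-mer Agilent arrays double-stranded by primer extension, the bound protein was detected with fluorescent anti-GST. E-scores, modified Wilcoxon-Mann-Whitney statistics, were given by the Universal PBM Analysis Suite to ungapped eight-base words pooled with their reverse complements after masliner normalisation.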
In the case of CGTATATC, the “PBM E-score” value worked out at 0.086. On to CGCCAGGC, for which the “PBM E-score” value is -0.181. CTTTTCCA: the “PBM E-score” value was -0.0772.

For AGTACTCG, the “PBM E-score” value was -0.0502. In the case of ACTCCGCT, the “PBM E-score” value is -0.265. Regarding AGGTTAGA, the “PBM E-score” value was -0.25.

In the case of AGTTCACA, the “PBM E-score” value came out at 0.0399. With TCAATCAA, the “PBM E-score” value came to 0.12. With ATGGAGTG, the “PBM E-score” value is -0.152. The value for ACTATCAT was 0.193. As for AAGTGAAG, the “PBM E-score” value was -0.0822. On to AAACGGCT, for which the “PBM E-score” value amounted to 0.105. For the sequence GCATGCAC, the “PBM E-score” value turned out to be 0.0382. Next, CCGAATCA: -0.0161; GCCATTAA: 0.102; ACAGTCCC: -0.391.

Take TAGGGGAA: the “PBM E-score” value was -0.175. On to CCTTGAAG, for which the “PBM E-score” value was -0.00459.

Take ACCCCATA: the “PBM E-score” value is -0.17. Turning to AGAAGGAT, the “PBM E-score” value was -0.0435. Take GCGTTATA: the “PBM E-score” value is 0.0248.

As to GACTCCCA, the “PBM E-score” value was -0.274. For the sequence TACGTGCA, the “PBM E-score” value was determined as 0.186. CACATCAA: the “PBM E-score” value amounted to 0.162. Consider GGGTCGTA, for which the “PBM E-score” value is -0.173. Regarding GACACGAA, the “PBM E-score” value was -0.0508.

With AGCTCTAG, the “PBM E-score” value is -0.121. For the sequence GAATCAAC, the “PBM E-score” value came to 0.16. As to CATGGGTC, the “PBM E-score” value was -0.0524. Next, ATCCTGTA: 0.0281; AGCAAATG: -0.0221; TAGAGACA: -0.0631. On to GGCATTAC, for which the “PBM E-score” value was 0.3.

Consider GAGATCTC, for which the “PBM E-score” value is -0.183. The value for CTGCGTCC was -0.11.

Regarding CAATCGGG, the “PBM E-score” value is -0.116. Turning to GGCTTTAA, the “PBM E-score” value was found to be 0.0896. Next, ATCGTGAG: -0.0624; CGCGTCAA: 0.211. The value for ATACTAAA was 0.264; that for AGCCAAAC was 0.0206.

For the sequence CGAATCTC, the “PBM E-score” value was -0.13. The value for GCACGCAA was -0.0783; that for CGCCTAGC was -0.238; that for CGCCTACA was -0.107.

For the sequence AGTAACAA, the “PBM E-score” value was 0.147. Take CTACAGAG: the “PBM E-score” value is -0.0332. As to GGAATATA, the “PBM E-score” value amounted to 0.0672. For ATGGTGGC, the “PBM E-score” value was -0.249. For the sequence GGAACGGA, the “PBM E-score” value was -0.1. For AAAAGTGA, the “PBM E-score” value stood at 0.306.

As for GAGTCATA, the “PBM E-score” value was 0.144.

Consider ATATTTAC, for which the “PBM E-score” value is 0.175.

For the sequence CCGAGCTA, the “PBM E-score” value was -0.0807. For CACGAGGA, the “PBM E-score” value was -0.0299. In the case of CATGCAAG, the “PBM E-score” value is -0.111. Next, AGATGAGC: -0.0176. As to TATGTAGA, the “PBM E-score” value was -0.0113. The value for AGGCAAGG was -0.142. In the case of CGGCAGGC, the “PBM E-score” value was -0.203.

Consider ACATATAC, for which the “PBM E-score” value is 0.0718. Regarding ACTGGGAT, the “PBM E-score” value is -0.00304.

Regarding ATGGACGG, the “PBM E-score” value was -0.00168. With CGTACGAC, the “PBM E-score” value is 0.122.

As to CAGATCAC, the “PBM E-score” value was 0.00632. With GGAGTCGA, the “PBM E-score” value was -0.12.

Turning to CGTAATTA, the “PBM E-score” value was 0.362.

As for CGATGGAG, the “PBM E-score” value is -0.0922.

For the sequence GTGATTCA, the “PBM E-score” value is 0.109. In the case of CGGCGGGC, the “PBM E-score” value is -0.123. As to GGTAGTTA, the “PBM E-score” value was determined as 0.0686.

ACGCTGGG: the “PBM E-score” value was -0.278.

CCGCTGCC: the “PBM E-score” value is -0.15. In the case of CAAATACC, the “PBM E-score” value was -0.0912. For the sequence ATGCGAGA, the “PBM E-score” value was found to be 0.00294. As for ACGACGCC, the “PBM E-score” value was -0.0481. For CATCAAAG, the “PBM E-score” value came to 0.0154. The value for AAACCTTA was 0.166; that for AAACTATA was 0.0675. Next, ACTACGTG: -0.0819; CAGTCCGC: -0.0766; CACCGTGG: -0.208.

As for AGCTAAAG, the “PBM E-score” value was -0.0194. With GGCTGCGA, the “PBM E-score” value is -0.142. TAGGATCA: the “PBM E-score” value was -0.0491. The value for AACGCGAG was -0.0274.

The values are drawn from the supplement of paper PMC3334620.
